# PubChem BioAssay AID1963825 (Molecular Pharmacology Branch, DTP, NCI, 2024)
# For part of its entries the source gives two or more results. The list is limited to them. The source may hold further records. Values given together are repeated measurements across runs, samples, wells, individuals or studies. Marks such as (2×) count equal records among those shown. Dates in brackets are months of testing.
# Test: Anticancer human tumor 997537-175-T-J1-PDC patient-derived colon adenocarcinoma cell line growth inhibition [POLQ]
# Conditions: 997537-175-T-J1-PDC complex spheroid viability, combination with POLQ inhibitors; for IC50: compound alone; for viability, T/C: stronger effect = lower value
# Procedure: Multicellular complex tumor spheroid response to Polymerase (POL) inhibitors (novobiocin, ART-558, RP6685) in combination with a variety of drugs and investigational agents in selected tumor cell lines
# The POL inhibitors (novobiocin, ART-558, and RP6685) were evaluated both individually and in combination with standard of care and investigational anticancer small molecules within a complex spheroid model of solid tumors. . Complex spheroids include a stromal component modeled by human endothelial cells (HUVEC) and fibroblasts modeled by human mesenchymal stem cells (MSCs). The concentration ranges selected for each drug and investigational agent were based upon clinically achievable concentrations if the clinical Cmax of the agent was known.
# Compounds. The drugs and investigational agents: novobiocin (NSC847541), ART-558 (NSC835418), RP-6685 (NSC848927), peposertib (NSC802822), ceralasertib (NSC780249), elimusertib (NSC800525), camonsertib (NSC841442), AZD-1390 (NSC803789), olaparib (NSC753686), talazoparib (NSC767125), rucaparib (NSC756644), sotorasib (NSC818433), MRTX-1133 (NSC836407), SN-38 (NSC673596), topotecan (NSC609699), epotoside (NSC141540), doxorubicin (NSC123127), gemcitabine (NSC613327), 5-fluorouracil (NSC19893), paclitaxel (NSC125973), vemurafenib (NSC761431), MSA-2 (NSC828583), SN-011 (NSC837082), adavosertib (NSC754352), prexasertib (NSC758257), carboplatin (NSC241240) and oxaliplatin (NSC266046), were obtained from the National Cancer Institute (NCI) Developmental Therapeutics Program Chemical Repository (21). The FDA-approved anticancer drug set is available from the Developmental Therapeutics Program at https://dtp.cancer.gov/organization/dscb/obtaining/. […] The stock solutions were prepared in dimethyl sulfoxide (DMSO, Sigma-Aldrich, St. Louis, MO, cat. D2650), except for the platinum compounds which were prepared in saline (Quality Biological, Gaithersburg, MD, cat. 114-055-101), at 800-fold the tested concentration and stored at -70 degrees C prior to their use. All drugs and investigational agents were tested over a range starting from a high concentration at or near the clinical Cmax and decreasing in half-log increments. If the clinical Cmax for an agent had not been determined, the highest concentration tested was 10 microM, except for SN-38, which was tested at a high concentration of 1 microM.
# Cell Culture. All cells were maintained in an incubator at 37 degrees C and 5% CO2 with 95% humidity. The PDC lines were cultured according to standard operating procedures established by the NCI PDMR (https://pdmr.cancer.gov). Table 3 of the manuscript, lists the cell lines along with the number of the three cell types plated to form the mct-spheroids and media for tumor cell growth. After thawing, all PDC lines, except 997537-175-T-J1-PDC and 415267-285-R-J2-PDC, were cultured in Matrigel-coated flasks prepared with a working solution of 1X Ham's F-12 nutrient mix, without supplementation (Thermo Fisher Scientific, cat. 11765054), 100 U/mL penicillin-streptomycin (Thermo Fisher Scientific, cat. 15140122), and 2.5% Matrigel (Corning Inc., Corning, NY, cat. 354248) for the first three passages. The two PDC lines 997537-175-T-J1-PDC and 415267-285-R-J2-PDC were cultured on uncoated flasks. The 857933-349-R-J2-PDC line was cultured in 6C/Colon 1B media containing advanced DMEM/F-12 (Thermo Fisher Scientific, cat. 12634028), 10 mM HEPES (Thermo Fisher Scientific, cat. 15630080), 1X GlutaMAX supplement (Thermo Fisher Scientific, cat. 35050061), 0.1 mg/mL primocin (InvivoGen, San Diego, CA, cat. ant-pm-2), 10% defined fetal bovine serum, heat inactivated (HyClone Laboratories Inc., Logan, UT, cat. SH30070.03HI), 50% L-WRN conditioned media (ATCC, cat. CRL-3276), 1.25 mM N-Acetyl-L-cysteine (Sigma-Aldrich, cat. A9165), 10 mM nicotinamide (Sigma-Aldrich, cat. N0636), 1X B-27 supplement (Thermo Fisher Scientific, cat. 17504044), 1X N-2 supplement (Thermo Fisher Scientific, cat. […]
# 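Further: luminescence signal used as a surrogate for viable cells; spheroids exposed to drugs for seven days before readout.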
compound,measurement,setting,value
CC(C)n1c(=O)n(C)c2cnc3cc(F)c(-c4ccc(OCCCN5CCCCC5)nc4)cc3c21,IC50,,"< 31.6 nM, > 10 µM [2023-11] and > 10 µM [2023-12]"
CC1COCCN1c1cc(-c2ccnn2C)c2ccnc(-c3ccn[nH]3)c2n1 (configuration not stated),IC50,,"273 nM, > 10 µM [2023-11] and > 10 µM [2023-12]"
Nc1ccc(C#CCN(C(=O)Cc2ncc(C(F)(F)F)cc2C(F)(F)F)c2ccc(F)cc2)nn1,"viability, T/C",compound alone 1 µM,"105 (2×), 102, 94.8, 106, 110, 103, 97.2, 97.7, 92.1, 101, 84.7, 107%"
COC1C(OC(N)=O)C(O)C(Oc2ccc3c(O)c(NC(=O)c4ccc(O)c(CC=C(C)C)c4)c(=O)oc3c2C)OC1(C)C (configuration not stated),"viability, T/C",compound alone 0.0316 µM,"82.4, 106, 98.9, 97.5, 112, 93.1, 90.5, 104, 100, 105, 99.3, 99.1, 93.5%"
same,"viability, T/C",compound alone 3.16 µM,"92.3, 85.5, 103, 112, 110, 90.1, 106, 99, 99.9, 91.6, 108, 97, 98.6%"
same,"viability, T/C",compound alone 10 µM,"90.9, 101 (2×), 97.1, 105, 85.4, 97, 94.6, 111, 100, 99.5, 98.7, 98%"
O=C(c1cc(Cc2n[nH]c(=O)c3ccccc23)ccc1F)N1CCN(C(=O)C2CC2)CC1,IC50,,"< 31.6 nM, > 10 µM [2023-11] and > 10 µM [2023-12]"
